In the RNAGym collection of RNA variant scans (doi:10.1101/gad.245936.114):
Variants at the floor of the assay are shown more often than the library holds them.

B1: tRNA (parent)
chain: CUCUCGGUAGCCAAGUUGGUUUAAGGCGCAAGACUUUAAUUUAUCACUACGAAAUCUUGAGAUCGGGCGUUCGACUCGCCCCCGGGAGAUUUUUUCCUCGAGCAA

Variants of: B1
Assay: nonsense suppression (GFP-seq) (ratio to wild type); higher = more function; SUP4oc tRNA, yeast GFP reporter sort-seq
In short: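 Raffinose/galactose medium with 80 mg/L adenine was used to grow yeast carrying genome-integrated tRNA variants (~3% random-mutation library), RFP, and a galactose-driven GFP ochre reporter. Cells went into GFP/RFP bins, which were Illumina-sequenced, and variants with ≥100 reads and ≥30 cells were scored. Nonsense suppression (GFPSEQ) is the per-bin median GFP/RFP weighted by estimated cell share and expressed relative to the unmutated parent tRNA.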

Nonsense suppression, ≤ 0.026:
G15C G25U A54U
G15C G25U G61U
G15C G28U G65A C68A G86U
G15C G32A A33U U70A
G15C G32C U63C G88C
G15C G32U G86A G88A
G15C G61C U63G
G15C G66C
G15C G66C A87G G88A
G15C G67A
G15C G69C
G15C G69U G73C
G15C G78C G86C
G15C G85A
G15C G85U
G15C U16A U21A
G15C U17C
G15C U17C C83U
G15C U17C U20C C75G
G15C U21A U35G
G15C U21C C64G G78A
G15C U22A G25A A33U U55C C56A
G15C U22A G86A
G15C U22C U58G U70A
G15C U22C U63G
G15C U35C
G15C U57A G73A
G15C U58A A60U
G15C U70A
G15U
G15U A23G
G15U A23G C29A C56A
G15U A23G G65C
G15U A23G G73C C80A
G15U A23U
G15U A23U C83G
G15U A23U G26U G86A A87G
G15U A24C A60C
G15U A24C G69A G88U A89C
G15U A24G U76A C81G
G15U A30C C75G C77A
G15U A30G
G15U A31G
G15U A31G C64A U71G
G15U A33G U71G
G15U A33U C75G
G15U A54C A87G
G15U A54U G59C
G15U A62U U63A U71A
G15U A74C
G15U A74G A89U
G15U C27G A87U
G15U C27U
G15U C27U G73C
G15U C29G A30C
G15U C29U
G15U C34U G61A G85C
G15U C56A A60U
G15U C56A G88C
G15U C56G G69C
G15U C68A U76G
G15U C72G
G15U C72U
G15U C75G
G15U C81G
G15U C83G
G15U G18A U55C G59U U63G C72G C82U G85C
G15U G19C
G15U G25A C29A C34G
G15U G25C A87G
G15U G25C G86U
G15U G25C U71G
G15U G25U
G15U G26A A31C C34U
G15U G26C C80G
G15U G26U A74G
G15U G28A C80G
G15U G28C U57C U71G
G15U G28U
G15U G32U U57C C75A
G15U G61U U63A G88A
G15U G65C C80G
G15U G66C G85U
G15U G69C G78C
